Source: patent US20220056104A1 (Janssen / Centocor, published 2022)
Read-outs that look alike come from different tables or passages of the source.

Legend:
[1] = biological target: T1, Recombinant DR3-Fc (R&D Systems, cat. #943-D3) (UniProt Q93038 25-199, limits assumed); assay: ELISA, DR3-Fc immobilized
T1 construct: dimeric MW~92 kDa; also called DR3 receptor; Fc-DR3; not shown: Fc part of the bought fusion
T1 sequence (looked up): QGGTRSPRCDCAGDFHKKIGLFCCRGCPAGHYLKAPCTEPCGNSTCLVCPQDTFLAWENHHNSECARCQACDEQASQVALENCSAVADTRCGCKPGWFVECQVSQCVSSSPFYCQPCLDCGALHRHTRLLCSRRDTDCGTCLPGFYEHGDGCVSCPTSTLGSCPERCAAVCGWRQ
Procedure: (§1) All ELISA-based measurements were collected in triplicate, and error values report the standard error between measurements. Recombinant DR3-Fc (R&D Systems, cat. #943-D3), dimeric MW˜92 kDa, was non-specifically immobilized onto plates (Nunc maxisorp, cat. #436110) in 100 μL DR3-Fc, diluted to 10 μg/mL onto a 96-well White Maxisorp plate (Nunc, cat #436110) (O/N, 4° C.). Plates were block for 1 hour at room temperature with 250 μl/well of casein buffer and blocking buffer was removed. 50 μL of TL1A variants were diluted in StartingBlock PBS (Thermo Fisher Scientific), at 25 μg/mL, diluting 3× over each well, according to the plate map description for 20160623) per well on a 96-well White Maxisorp plate (Nunc, cat #: 436110) (overnight at 4° C.).
(§2) Plates were washed three times with TBST. 100 μl/well polyclonal rabbit anti-human TL1A-biotin antibody (diluted 1:1000 in Starting Block PBS) was added and plates were incubated for 1 hour at room temperature with shaking at 150 rpm. TL1A-biotin antibody was removed and 100 μl/well streptavidin-HRP conjugate (diluted 1:10,000 in Starting Block PBS) was added to plates. Plates were incubated for 1 hour at room temperature with shaking at 150 rpm. Plates were washed three times with TBST. 100 μl/well POD Chemiluminescence substrate (Roche, cat #: 11582950001) was added immediately prior to reading plate luminescence using a Molecular Devices M5 plate reader with a delay setting of 100 ms.
These combination mutants were tested for binding to DR3 and DcR3 (FIGS. 5E and 5F, respectively).

[2] = biological target: T1, Recombinant DR3-Fc (R&D Systems, cat. …); assay: ELISA, DR3-Fc immobilized; remark: listed apart in the source
Procedure: as §1
as §2, with “Plates were incubated for 1 hour at room temperature with shaking at 150 rpm. Plates were washed three times with TBST.” left out, “ms. […]” for “ms.”

DcR3 [3] = biological target: T2, DcR3 (UniProt O95407 30-300, limits assumed); assay: ELISA, DcR3
T2 construct: the construct is not described; also called decoy receptor DcR3; TNFRSF6B
T2 sequence (looked up): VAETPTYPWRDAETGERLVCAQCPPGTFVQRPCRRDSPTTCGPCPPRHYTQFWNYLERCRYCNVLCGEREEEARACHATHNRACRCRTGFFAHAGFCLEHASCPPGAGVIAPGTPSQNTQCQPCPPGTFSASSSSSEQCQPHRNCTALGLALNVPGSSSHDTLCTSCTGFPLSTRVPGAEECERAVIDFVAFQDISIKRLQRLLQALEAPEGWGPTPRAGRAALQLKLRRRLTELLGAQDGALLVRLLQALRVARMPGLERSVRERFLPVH

[4] = biological target: T1, Recombinant DR3-Fc (R&D Systems, cat. …); assay: ELISA, TL1A construct immobilized, DR3 titrated
[5] = biological target: T1, Recombinant DR3-Fc (R&D Systems, cat. …); assay: ELISA, DR3-Fc immobilized; remark: listed apart in the source
Procedure: as §1, §2

DcR3 [6] = biological target: T2, DcR3; assay: ELISA, DcR3; remark: listed apart in the source

B1: TL1W14 (Fc-scTL1A with CD4 HC sp prim_transcript) (Fc fusion)
chain: [left out - human IgG1 Fc and a few adjoining residues]GGGGSVYAPLRADGDKPRAHLTVVRQTPTQHFKNQFPALHWEHELGLAFTKNRMNYTNKFLLIPESGDYFIYSQVTFRGMTSECSEIRQAGRPNKPDSITVVITKVTDSYPEPTQLLMGTKSVCEVGSNWFQPIYLGAMFSLQEGDKLMVNVSDISLVDYTKEDKTFFGAFLLGGGSGGGSGGGSVYAPLRADGDKPRAHLTVVRQTPTQHFKNQFPALHWEHELGLAFTKNRMNYTNKFLLIPESGDYFIYSQVTFRGMTSECSEIRQAGRPNKPDSITVVITKVTDSYPEPTQLLMGTKSVCEVGSNWFQPIYLGAMFSLQEGDKLMVNVSDISLVDYTKEDKTFFGAFLLGGGSGGGSGGGSVYAPLRADGDKPRAHLTVVRQTPTQHFKNQFPALHWEHELGLAFTKNRMNYTNKFLLIPESGDYFIYSQVTFRGMTSECSEIRQAGRPNKPDSITVVITKVTDSYPEPTQLLMGTKSVCEVGSNWFQPIYLGAMFSLQEGDKLMVNVSDISLVDYTKEDKTFFGAFLL
notes: Human IgG1 Fc with single-chain TL1A trimer at its C-terminus; dimer with two TL1A trimers; also called Fc-scTL1A (TL1W14); Fc-scTL1A W14
For B1, which EC50 [1] is on record?
The EC50 was 9.7 nM.

What about the “Rel EC50” value [1] of the same binder?
Its value is 1 ratio.

What about the “Rel EC50” value [2] of the same binder?
The value was 1 ratio (head: nM).

What about the EC50 (DcR3 [3]) of the same binder?
The EC50 was 6.5 nM.

And the EC50 [4]?
The EC50 was 1.5 nM.

What about the EC50 [5] of the same binder?
Its EC50 is 9.7 nM.

What about the EC50 (DcR3 [6]) of the same binder?
Its EC50 is 6.5 nM.

What about the “Rel EC50” value (DcR3 [6]) of the same binder?
The value was 1 ratio (head: nM).
